# Assay results from PubChem BioAssay AID651820 (National Center for Advancing Translational Sciences (NCATS), 2012).
# Where “and” joins values, the source holds several entries; their conditions need not be identical. Identical values can stand only once. Screen size: about 340,000 compounds; about 12,000 (3.5%) were called active. The shares of active, inactive and inconclusive entries below differ from those in the screen. Calls come from the whole dose curve; as a rule, active = well fitted inhibition curve with a large enough effect; inconclusive = small, poorly fitted or top-dose-only effect, or another doubt; inactive = no such curve, though single readings can be large or run the other way. No potency is given beside an inconclusive call; the fits are too rough. Some structures have more than one record in an assay (separate samples or runs), and their calls can disagree.
# Test: qHTS Assay for Inhibitors of Hepatitis C Virus (HCV)
# Conditions: Huh7.5.1 HCVcc-Cre (HCVcc is cell-culture hepatitis C virus) infection, luciferase reporter, 44 h; activity change, negative = inhibition: at 41.8 µM (top of the series)
# Summary of the method: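 A cell-based infection assay in which seeded cells (1,000 per well) receive test compound after 4 h, are inoculated with HCVcc-Cre at approximately 0.5 moi, and are incubated 44 h before luminescence detection.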
# % is set by controls: 0 for no effect and ±100 for the full control effect; potency is the fitted concentration of half-maximal effect; tags give direction and shape of the fitted curve.
SMILES,Potency,"activity change, negative = inhibition"
O=C(NCc1ccco1)c1sc2ccccc2c1Cl,"inconclusive [inhibitor, partial curve]",
COc1ccc(-c2nc3ccccc3c(=O)n2CCOc2cc(C)ccc2C)cc1,,inactive: -5.53%
COc1ccc(N2CCN(C(=O)c3nc4nc(C)cc(C)n4n3)CC2)cc1,,inactive: 19.4%
O=C(NCc1ccccc1)c1cc2ccc(O)cc2oc1=O,,inactive: 18.4%
CCN1CCN(c2ccc(NC(=O)c3ccccc3F)cc2Cl)CC1,"inconclusive [inhibitor, partial curve]",
O=C(c1cccc([N+](=O)[O-])c1)c1ccc2c(c1)OCCOCCOCCO2,"inconclusive [inhibitor, full curve, poor fit]",
CCN1CCN(c2nc(-c3cccnc3)nc3ccccc23)CC1,"inconclusive [inhibitor, single point]",
COc1ccc(Br)cc1C(=O)Nc1cccc2ncccc12,active: 10 µM,
CN(CC(=O)Nc1ccccc1C(F)(F)F)C(=O)Cc1ccc(S(=O)(=O)N2CCOCC2)s1,,inactive: 9.37%
CCc1nn(CC(=O)NCCCc2ccccc2)c(=O)c2cc3cc(F)ccc3n12,"inconclusive [inhibitor, partial curve]",
COc1cc(CN2CCC(Cc3ccccc3)CC2)c([N+](=O)[O-])cc1OC,"inconclusive [inhibitor, partial curve]",
O=C(N/N=C/c1ccc(N2CCOCC2)cc1)c1ccc(O)cc1,"inconclusive [inhibitor, single point]",
COc1ccc(CC(C)Nc2cccc(SC)c2)cc1 (centres undefined),,inactive: 1.82%
CCn1c(C)cc(/C=C2/SC(=O)N(CC(=O)N3CCCC3)C2=O)c1C,"inconclusive [inhibitor, partial curve]",
O=C1NCCOC(=O)[C@H](Cc2ccc(F)cc2)C/C=C\C[C@@H]1CC(=O)N(CCO)Cc1ccccc1,active: 11.2 µM,
Cc1nc2cc(NC(=O)Nc3ccccc3Cl)ccc2n1C,"inconclusive [inhibitor, single point]",
CCN(CC)CCN1C(=O)C2C(C(=O)Nc3cccc(C)c3)C3C=CC2(O3)C1C(=O)NC1CCCC(C)C1C (centres undefined),,inactive: -24.3%
CN(CCCCCCCCCCN(C)C(=O)Oc1cccc([N+](C)(C)C)c1)C(=O)Oc1cccc([N+](C)(C)C)c1,"inconclusive [inhibitor, partial curve, poor fit]",
CCOC(=O)C1CCCN(C(=O)c2cc(Nc3ccc(OC)cc3OC)nc3ccccc23)C1 (centres undefined),"inconclusive [inhibitor, single point]",
CNc1ccccc(C(=O)/C=C/c2ccccc2OC)c1=O,"inconclusive [inhibitor, single point]",
CC(C)c1cc(-c2cc(C(=O)NCc3ccccc3)on2)nc(NCC2CC2)n1,"inconclusive [inhibitor, single point]",
O=C(NC1CCCCC1)c1ccc(N2CCOCC2)c([N+](=O)[O-])c1,,inactive: -0.88%

SMILES,Potency,"activity change, negative = inhibition"
C/C=C\C=C\C(=O)N1CC2(CC(c3cccc(NC(=O)COc4ccc(Cl)cc4)c3)=NO2)C[C@H]1C(N)=O (some centres undefined),,inactive: -23.3%
Cc1cc(SCC(=O)Nc2ccc(O)cc2)n2nc(C)c(-c3ccccc3)c2n1,"inconclusive [inhibitor, single point]",
O=C(NC1CCCC1)C1CCCN(S(=O)(=O)c2cccc3cccnc23)C1 (centres undefined),,inactive: 10.6%
CCN(CC)CCNC(=O)c1cn(CC)c2ccc(S(=O)(=O)N3CCc4ccccc4C3)cc2c1=O,"inconclusive [inhibitor, single point]",
CSc1ccccc1NC(=O)COc1ccc2c(c1)OCO2,"inconclusive [inhibitor, single point]",
Cc1c(C(=O)Nc2ccc3c(c2)OCO3)sc2nc(-c3ccccc3)cn12,active: 3.98 µM,
O=C(NNC(=O)c1ccc(-n2cncn2)c([N+](=O)[O-])c1)c1ccccc1,"inconclusive [inhibitor, single point]",
CC(C)N(c1ccccc1)c1ccc(NC(=O)COC(=O)CCN2C(=O)c3cccc([N+](=O)[O-])c3C2=O)cc1,"inconclusive [inhibitor, single point]",
CCNCC(=O)N1c2ccccc2CCc2ccc(NC(=O)OC(C)C)cc21,"inconclusive [inhibitor, single point]",
O=C(Nc1ccccc1-c1ccccc1)NC1CC2CCCC(C1)N2CCc1ccccc1 (centres undefined),"inconclusive [inhibitor, partial curve]",
CC1CC(C)CN(c2oc(-c3ccccc3F)nc2C#N)C1 (centres undefined),"inconclusive [inhibitor, full curve, poor fit]",
COc1ccc(NC(=S)NCC2CCN(c3ccc(OC)cc3)C2)cc1 (centres undefined),"inconclusive [inhibitor, partial curve]",
CCOC(=O)c1ccc(NC(=O)c2ccc(NS(C)(=O)=O)cc2)cc1,active: 11.2 µM,
Cn1c(C(=O)NCc2ccccc2)cc2oc3ccccc3c21,"inconclusive [inhibitor, partial curve]",
FC(F)(F)c1cc(-c2ccco2)nc(-n2cnc3ccccc32)n1,"inconclusive [inhibitor, partial curve]",
CCN(CC)S(=O)(=O)c1ccc(N2CCOCC2)c(NC(=O)C2CCCC2)c1,"inconclusive [inhibitor, partial curve]",
CCCOC(=S)NC(=O)c1sc2ccccc2c1Cl,"inconclusive [inhibitor, full curve]",
Cc1c(NC(=O)NC2CCCCC2)cccc1[N+](=O)[O-],,inactive: 3.29%
CN1CCN(c2ncc3c(n2)CC(c2ccccc2F)CC3=O)CC1 (centres undefined),"inconclusive [inhibitor, full curve, poor fit]",
CC(=O)Nc1ccc(S(=O)(=O)N2CCN(c3cnn(C)c(=O)c3Cl)CC2)cc1,,inactive: 4.74%
CC(C)N1CCN(CCCc2ccccc2)CC1CCO (centres undefined),,inactive: 6.49%
COCCNC(=O)CN1CCC(NC(=O)Nc2ccc(C(F)(F)F)cc2)CC1,inactive and active: 11.2 µM,
